# Test results: the supplement of paper PMC8728848
# Some of the results follow.
# B1: SP16663B-bot-321-25-321 (Bacteroides ovatus) (protein)
# chain: DDDDEVTMNSKFYLSTKVFPVDSYEASLSVILKDNSVVVNELQPNYRFVACATERLSKDVKITADSDDNLVSAYNKANDTEYNILPAENYSFTNKTVTIENGESVSGDSIKIELLNVGSLTTEGGYLLPVTISSIEGNNLDALSSNRGVVYLKIQNIHVNVESGQPAEGTLIADRSGWTVKVAPTTRGDAKNLIDGTNSDVARDGGAEYWLTVDIGKVQTLTGIRNKCYASSYSPTAVEVFTSSDGAKWKSIGAVTISKSGTQYIKFSKAVETRYLKYYVKQGPNTVSLTEFDLYAK
# Assays:
# Experiment in all cases: glycan array binding signal (z-score within array); higher = stronger binding
# Details in all cases: glycan notation: IUPAC condensed, linker removed
# [1] = target: Gal(b1-4)GlcNAc(b1-2)Man(a1-6)[Man(a1-3)]Man(b1-4)GlcNAc(b1-4)GlcNAc
# In short: (§1)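 The binding signal is a Z-score computed within each array. Data were drawn from 3228 arrays in the Consortium for Functional Glycomics database, restricted to those with a known protein sequence. Scores were averaged over arrays of the same protein sequence at different concentrations or buffers, and over linkers, and negative values can be taken as non-binding.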
# [2] = target: Gal(b1-4)GlcNAc(b1-2)[Gal(b1-4)GlcNAc(b1-4)]Man(a1-3)[Gal(b1-4)GlcNAc(b1-2)Man(a1-6)]Man(b1-4)GlcNAc(b1-4)GlcNAc
# In short: as §1
# [3] = target: Gal(b1-4)GlcNAc(b1-2)[Gal(b1-4)GlcNAc(b1-4)]Man(a1-3)[Gal(b1-4)GlcNAc(b1-2)[Gal(b1-4)GlcNAc(b1-6)]Man(a1-6)]Man(b1-4)GlcNAc(b1-4)GlcNAc
# In short: as §1
# [4] = target: Gal(b1-4)GlcNAc(b1-2)[Gal(b1-4)GlcNAc(b1-4)]Man(a1-3)[GlcNAc(b1-4)][Gal(b1-4)GlcNAc(b1-2)Man(a1-6)]Man(b1-4)GlcNAc(b1-4)GlcNAc
# In short: as §1
# [5] = target: Gal(b1-4)GlcNAc(b1-2)[Gal(b1-4)GlcNAc(b1-4)]Man(a1-3)[GlcNAc(b1-4)][Gal(b1-4)GlcNAc(b1-2)[Gal(b1-4)GlcNAc(b1-6)]Man(a1-6)]Man(b1-4)GlcNAc(b1-4)GlcNAc
# In short: as §1
# [6] = target: Gal(b1-4)GlcNAc(b1-2)[Gal(b1-4)GlcNAc(b1-6)]Man(a1-6)[Gal(b1-4)GlcNAc(b1-2)Man(a1-3)]Man(b1-4)GlcNAc(b1-4)GlcNAc
# In short: as §1
# [7] = target: Gal(b1-4)GlcNAc(b1-2)[Gal(b1-4)GlcNAc(b1-6)]Man(a1-6)[Gal(b1-4)GlcNAc(b1-2)Man(a1-3)]Man(b1-4)GlcNAc(b1-4)[Fuc(a1-6)]GlcNAc
# In short: as §1
# [8] = target: Gal(b1-4)GlcNAc(b1-2)[Gal(b1-4)GlcNAc(b1-6)]Man(a1-6)[GlcNAc(b1-4)][Gal(b1-4)GlcNAc(b1-2)Man(a1-3)]Man(b1-4)GlcNAc(b1-4)GlcNAc
# In short: as §1
# [9] = target: Gal(b1-4)GlcNAc(b1-2)[Gal(b1-4)GlcNAc(b1-6)]Man(a1-6)[GlcNAc(b1-4)][Gal(b1-4)GlcNAc(b1-2)[Gal(b1-4)GlcNAc(b1-4)]Man(a1-3)]Man(b1-4)GlcNAc(b1-4)[Fuc(a1-6)]GlcNAc
# In short: as §1
# [10] = target: Gal(b1-4)GlcNAc(b1-3)Gal(b1-3)GalNAc
# In short: as §1
# [11] = target: Gal(b1-4)GlcNAc(b1-3)Gal(b1-3)GlcNAc
# In short: as §1
# [12] = target: Gal(b1-4)GlcNAc(b1-3)Gal(b1-4)Glc
# In short: as §1
# [13] = target: Gal(b1-4)GlcNAc(b1-3)Gal(b1-4)GlcNAc
# In short: as §1
# [14] = target: Gal(b1-4)GlcNAc(b1-3)Gal(b1-4)GlcNAc(b1-2)Man(a1-3)[Gal(b1-4)GlcNAc(b1-3)Gal(b1-4)GlcNAc(b1-2)Man(a1-6)]Man(b1-4)GlcNAc(b1-4)GlcNAc
# In short: as §1
# [15] = target: Gal(b1-4)GlcNAc(b1-3)Gal(b1-4)GlcNAc(b1-2)Man(a1-3)[Gal(b1-4)GlcNAc(b1-3)Gal(b1-4)GlcNAc(b1-2)Man(a1-6)]Man(b1-4)GlcNAc(b1-4)[Fuc(a1-6)]GlcNAc
# In short: as §1
# [16] = target: Gal(b1-4)GlcNAc(b1-3)Gal(b1-4)GlcNAc(b1-2)[Gal(b1-4)GlcNAc(b1-3)Gal(b1-4)GlcNAc(b1-6)]Man(a1-6)[Gal(b1-4)GlcNAc(b1-3)Gal(b1-4)GlcNAc(b1-2)Man(a1-3)]Man(b1-4)GlcNAc(b1-4)GlcNAc
# In short: as §1
# [17] = target: Gal(b1-4)GlcNAc(b1-3)Gal(b1-4)GlcNAc(b1-2)[Gal(b1-4)GlcNAc(b1-3)Gal(b1-4)GlcNAc(b1-6)]Man(a1-6)[Gal(b1-4)GlcNAc(b1-3)Gal(b1-4)GlcNAc(b1-2)Man(a1-3)]Man(b1-4)GlcNAc(b1-4)[Fuc(a1-6)]GlcNAc
# In short: as §1
# [18] = target: Gal(b1-4)GlcNAc(b1-3)Gal(b1-4)GlcNAc(b1-3)Gal(b1-4)GlcNAc
# In short: as §1
# [19] = target: Gal(b1-4)GlcNAc(b1-3)Gal(b1-4)GlcNAc(b1-3)Gal(b1-4)GlcNAc(b1-2)Man(a1-3)[Gal(b1-4)GlcNAc(b1-3)Gal(b1-4)GlcNAc(b1-3)Gal(b1-4)GlcNAc(b1-2)Man(a1-6)]Man(b1-4)GlcNAc(b1-4)GlcNAc
# In short: as §1
# [20] = target: Gal(b1-4)GlcNAc(b1-3)Gal(b1-4)GlcNAc(b1-3)Gal(b1-4)GlcNAc(b1-2)Man(a1-3)[Gal(b1-4)GlcNAc(b1-3)Gal(b1-4)GlcNAc(b1-3)Gal(b1-4)GlcNAc(b1-2)Man(a1-6)]Man(b1-4)GlcNAc(b1-4)[Fuc(a1-6)]GlcNAc
# In short: as §1
# [21] = target: Gal(b1-4)GlcNAc(b1-3)Gal(b1-4)GlcNAc(b1-3)Gal(b1-4)GlcNAc(b1-2)[Gal(b1-4)GlcNAc(b1-3)Gal(b1-4)GlcNAc(b1-3)Gal(b1-4)GlcNAc(b1-6)]Man(a1-6)[Gal(b1-4)GlcNAc(b1-3)Gal(b1-4)GlcNAc(b1-3)Gal(b1-4)GlcNAc(b1-2)Man(a1-3)]Man(b1-4)GlcNAc(b1-4)[Fuc(a1-6)]GlcNAc
# In short: as §1
# [22] = target: Gal(b1-4)GlcNAc(b1-3)Gal(b1-4)GlcNAc(b1-3)Gal(b1-4)GlcNAc(b1-3)Gal(b1-4)GlcNAc(b1-2)Man(a1-3)[Gal(b1-4)GlcNAc(b1-3)Gal(b1-4)GlcNAc(b1-3)Gal(b1-4)GlcNAc(b1-3)Gal(b1-4)GlcNAc(b1-2)Man(a1-6)]Man(b1-4)GlcNAc(b1-4)GlcNAc
# In short: as §1
# [23] = target: Gal(b1-4)GlcNAc(b1-3)Gal(b1-4)GlcNAc(b1-3)Gal(b1-4)GlcNAc(b1-3)Gal(b1-4)GlcNAc(b1-2)Man(a1-3)[Gal(b1-4)GlcNAc(b1-3)Gal(b1-4)GlcNAc(b1-3)Gal(b1-4)GlcNAc(b1-3)Gal(b1-4)GlcNAc(b1-2)Man(a1-6)]Man(b1-4)GlcNAc(b1-4)[Fuc(a1-6)]GlcNAc
# In short: as §1
# [24] = target: Gal(b1-4)GlcNAc(b1-3)Gal(b1-4)GlcNAc(b1-3)Gal(b1-4)GlcNAc(b1-3)Gal(b1-4)GlcNAc(b1-2)[Gal(b1-4)GlcNAc(b1-3)Gal(b1-4)GlcNAc(b1-3)Gal(b1-4)GlcNAc(b1-3)Gal(b1-4)GlcNAc(b1-6)]Man(a1-6)[Gal(b1-4)GlcNAc(b1-3)Gal(b1-4)GlcNAc(b1-3)Gal(b1-4)GlcNAc(b1-3)Gal(b1-4)GlcNAc(b1-2)Man(a1-3)]Man(b1-4)GlcNAc(b1-4)[Fuc(a1-6)]GlcNAc
# In short: as §1
# [25] = target: Gal(b1-4)GlcNAc(b1-3)Gal(b1-4)GlcNAc(b1-3)Gal(b1-4)GlcNAc(b1-3)Gal(b1-4)GlcNAc(b1-3)Gal(b1-4)GlcNAc(b1-2)Man(a1-3)[Gal(b1-4)GlcNAc(b1-3)Gal(b1-4)GlcNAc(b1-3)Gal(b1-4)GlcNAc(b1-3)Gal(b1-4)GlcNAc(b1-3)Gal(b1-4)GlcNAc(b1-2)Man(a1-6)]Man(b1-4)GlcNAc(b1-4)GlcNAc
# In short: as §1
# [26] = target: Gal(b1-4)GlcNAc(b1-3)Gal(b1-4)GlcNAc(b1-3)Gal(b1-4)GlcNAc(b1-3)Gal(b1-4)GlcNAc(b1-3)Gal(b1-4)GlcNAc(b1-2)Man(a1-3)[Gal(b1-4)GlcNAc(b1-3)Gal(b1-4)GlcNAc(b1-3)Gal(b1-4)GlcNAc(b1-3)Gal(b1-4)GlcNAc(b1-3)Gal(b1-4)GlcNAc(b1-2)Man(a1-6)]Man(b1-4)GlcNAc(b1-4)[Fuc(a1-6)]GlcNAc
# In short: as §1
# [27] = target: Gal(b1-4)GlcNAc(b1-3)Gal(b1-4)GlcNAc(b1-3)Gal(b1-4)GlcNAc(b1-3)Gal(b1-4)GlcNAc(b1-3)Gal(b1-4)GlcNAc(b1-2)[Gal(b1-4)GlcNAc(b1-3)Gal(b1-4)GlcNAc(b1-3)Gal(b1-4)GlcNAc(b1-3)Gal(b1-4)GlcNAc(b1-3)Gal(b1-4)GlcNAc(b1-6)]Man(a1-6)[Gal(b1-4)GlcNAc(b1-3)Gal(b1-4)GlcNAc(b1-3)Gal(b1-4)GlcNAc(b1-3)Gal(b1-4)GlcNAc(b1-3)Gal(b1-4)GlcNAc(b1-2)Man(a1-3)]Man(b1-4)GlcNAc(b1-4)[Fuc(a1-6)]GlcNAc
# In short: as §1
# [28] = target: Gal(b1-4)GlcNAc(b1-3)Gal(b1-4)GlcNAc(b1-3)Gal(b1-4)GlcNAc(b1-3)Gal(b1-4)GlcNAc(b1-3)Gal(b1-4)GlcNAc(b1-3)Gal(b1-4)GlcNAc(b1-2)Man(a1-3)[Gal(b1-4)GlcNAc(b1-3)Gal(b1-4)GlcNAc(b1-3)Gal(b1-4)GlcNAc(b1-3)Gal(b1-4)GlcNAc(b1-3)Gal(b1-4)GlcNAc(b1-3)Gal(b1-4)GlcNAc(b1-2)Man(a1-6)]Man(b1-4)GlcNAc(b1-4)GlcNAc
# In short: as §1
# [29] = target: Gal(b1-4)GlcNAc(b1-3)Gal(b1-4)GlcNAc(b1-3)GalNAc
# In short: as §1
# [30] = target: Gal(b1-4)GlcNAc(b1-3)Gal(b1-4)GlcNAc(b1-3)[Gal(b1-4)GlcNAc(b1-3)Gal(b1-4)GlcNAc(b1-6)]GalNAc
# In short: as §1
# [31] = target: Gal(b1-4)GlcNAc(b1-3)Gal(b1-4)GlcNAc(b1-6)[Gal(b1-3)]GalNAc
# In short: as §1
# [32] = target: Gal(b1-4)GlcNAc(b1-3)Gal(b1-4)[Fuc(a1-3)]GlcNAc(b1-3)Gal(b1-4)[Fuc(a1-3)]GlcNAc
# In short: as §1
# [33] = target: Gal(b1-4)GlcNAc(b1-3)GalNAc
# In short: as §1
# [34] = target: Gal(b1-4)GlcNAc(b1-3)[Fuc(a1-3)GlcNAc(b1-6)]Gal(b1-4)Glc
# In short: as §1
# [35] = target: Gal(b1-4)GlcNAc(b1-3)[Gal(b1-4)GlcNAc(b1-6)]Gal(b1-4)GlcNAc
# In short: as §1
# [36] = target: Gal(b1-4)GlcNAc(b1-3)[GlcNAc(b1-6)]Gal(b1-4)GlcNAc
# In short: as §1
# [37] = target: Gal(b1-4)GlcNAc(b1-6)Gal(b1-4)GlcNAc
# In short: as §1
binder,measurement,setting,value
B1,glycan array binding signal (z-score),[1],-0.259
same,glycan array binding signal (z-score),[2],-0.29
same,glycan array binding signal (z-score),[3],0.097
same,glycan array binding signal (z-score),[4],0.089
same,glycan array binding signal (z-score),[5],-0.309
same,glycan array binding signal (z-score),[6],0.426
same,glycan array binding signal (z-score),[7],0.25
same,glycan array binding signal (z-score),[8],-0.598
same,glycan array binding signal (z-score),[9],0.131
same,glycan array binding signal (z-score),[10],-0.127
same,glycan array binding signal (z-score),[11],-0.368
same,glycan array binding signal (z-score),[12],-0.281
same,glycan array binding signal (z-score),[13],0.031
same,glycan array binding signal (z-score),[14],0.366
same,glycan array binding signal (z-score),[15],0.071
same,glycan array binding signal (z-score),[16],0.728
same,glycan array binding signal (z-score),[17],0.209
same,glycan array binding signal (z-score),[18],-0.425
same,glycan array binding signal (z-score),[19],0.449
same,glycan array binding signal (z-score),[20],0.195
same,glycan array binding signal (z-score),[21],-0.645
same,glycan array binding signal (z-score),[22],-0.442
same,glycan array binding signal (z-score),[23],0.288
same,glycan array binding signal (z-score),[24],0.458
same,glycan array binding signal (z-score),[25],-0.033
same,glycan array binding signal (z-score),[26],-0.192
same,glycan array binding signal (z-score),[27],0.068
same,glycan array binding signal (z-score),[28],0.751
same,glycan array binding signal (z-score),[29],-0.196
same,glycan array binding signal (z-score),[30],1.04
same,glycan array binding signal (z-score),[31],-0.878
same,glycan array binding signal (z-score),[32],0.157
same,glycan array binding signal (z-score),[33],-0.215
same,glycan array binding signal (z-score),[34],-0.211
same,glycan array binding signal (z-score),[35],-0.358
same,glycan array binding signal (z-score),[36],0.351
same,glycan array binding signal (z-score),[37],0.198
